Here are results for 88 compounds from publication PMC4336329 (PLoS ONE, 2015).

Each structure is given as a SMILES string. The whole screen tested about 310,000 compounds, of which about 2,200 (0.71%) showed an effect of 50% or more. Effects have a minus sign here. The list shows a part of the results.

Chain of human ether-à-go-go-related gene (hERG) potassium channel (Q12809 whole entry, looked up): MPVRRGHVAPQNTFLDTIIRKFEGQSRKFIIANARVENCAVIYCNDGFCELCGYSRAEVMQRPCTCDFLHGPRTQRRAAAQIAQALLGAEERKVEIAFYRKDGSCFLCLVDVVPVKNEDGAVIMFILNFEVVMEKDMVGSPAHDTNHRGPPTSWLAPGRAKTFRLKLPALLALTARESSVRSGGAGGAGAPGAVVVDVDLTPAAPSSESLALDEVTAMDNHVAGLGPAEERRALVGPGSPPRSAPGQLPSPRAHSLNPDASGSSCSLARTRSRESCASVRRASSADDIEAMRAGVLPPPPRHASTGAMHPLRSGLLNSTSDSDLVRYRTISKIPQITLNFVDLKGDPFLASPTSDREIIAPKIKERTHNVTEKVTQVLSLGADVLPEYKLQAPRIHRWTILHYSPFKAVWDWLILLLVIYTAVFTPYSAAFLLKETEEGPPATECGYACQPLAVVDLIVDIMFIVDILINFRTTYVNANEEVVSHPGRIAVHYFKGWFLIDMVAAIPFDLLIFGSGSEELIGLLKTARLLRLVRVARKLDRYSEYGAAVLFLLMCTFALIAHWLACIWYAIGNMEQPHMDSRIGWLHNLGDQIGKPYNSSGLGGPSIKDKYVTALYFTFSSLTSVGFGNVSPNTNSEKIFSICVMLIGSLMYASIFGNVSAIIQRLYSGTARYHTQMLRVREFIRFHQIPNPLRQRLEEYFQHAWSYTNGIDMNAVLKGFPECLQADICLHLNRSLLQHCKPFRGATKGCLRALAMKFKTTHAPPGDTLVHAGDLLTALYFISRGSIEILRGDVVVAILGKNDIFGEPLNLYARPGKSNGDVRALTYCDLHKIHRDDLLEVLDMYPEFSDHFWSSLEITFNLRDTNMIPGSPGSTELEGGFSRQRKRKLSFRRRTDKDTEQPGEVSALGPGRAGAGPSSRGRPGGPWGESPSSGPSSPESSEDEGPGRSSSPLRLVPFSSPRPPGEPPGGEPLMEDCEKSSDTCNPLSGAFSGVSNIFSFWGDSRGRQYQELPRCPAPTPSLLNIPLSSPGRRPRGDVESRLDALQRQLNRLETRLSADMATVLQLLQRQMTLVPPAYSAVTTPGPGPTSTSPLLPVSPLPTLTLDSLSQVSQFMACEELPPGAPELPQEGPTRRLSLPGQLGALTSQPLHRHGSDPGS

The assay addresses human ether-à-go-go-related gene (hERG) potassium channel (human, UniProt Q12809). Nature of the assay: primary screen, population patch clamp on CHO cells stably expressing hERG.
In the case of `O=C(NC1CCC(NC(=O)C(F)(F)C(F)F)CC1)C(F)(F)C(F)F` (stereo not shown), the “hERG current change (%, negative = inhibition) at 1uM” value is -6%.
For `CCc1onc(C)c1C(=O)O`, the “hERG current change (%, negative = inhibition) at 1uM” value amounted to 12.1%.
Turning to `CN(C)S(=O)(=O)c1cccc(-n2sc3ccccc3c2=O)c1`, the “hERG current change (%, negative = inhibition) at 1uM” value is given as 12.3%.
For the compound `O=C(O)CSCc1cn2cc(Cl)ccc2n1`, the “hERG current change (%, negative = inhibition) at 1uM” value is -1.92%.
Regarding `O=C(COc1ccc(Cl)cc1Cl)Nc1cccnc1`, the “hERG current change (%, negative = inhibition) at 1uM” value is recorded as 3.3%.
Turning to `Cc1ccccc1C(=O)N=c1ccn(-c2nc3ccccc3nc2NS(=O)(=O)c2ccccc2)cc1`, the “hERG current change (%, negative = inhibition) at 1uM” value is reported as 18%.
Take `Cc1ccc(/C(O)=C2/C(=O)C(=O)N(Cc3ccco3)C2c2cccs2)cc1` (stereo not shown): the “hERG current change (%, negative = inhibition) at 1uM” value was -5.82%.
To `Cn1c(CC(=O)Nc2ccccc2)nnc1SCC(=O)NC1CCCC1` belongs 9.49%.
Regarding `Cc1ccc(NC(=O)CSCC(=O)Nc2ccccc2N2CCCC2)cc1`, the “hERG current change (%, negative = inhibition) at 1uM” value is 12.6%.
To `C#CCOc1ccccc1/C=C1/C(=O)ON=C1C` belongs 11.9%; to `Cc1onc(-c2ccccc2Cl)c1C(=O)O/N=C(\N)c1ccccc1`, 2.52%; to `CN(c1ccccc1)S(=O)(=O)c1nnc(NC(=O)C2CCCCC2)s1`, 3.73%.
With `COc1ccc(S(=O)(=O)N2CCN(c3ccccn3)CC2)cc1OC`, the “hERG current change (%, negative = inhibition) at 1uM” value is 6.82%.
To `Cc1ccc(S(=O)(=O)N2CCN(CCO)CC2)cc1-c1nnc2c3ccccc3c(C)nn12` belongs 4.64%; to `CCNC(=O)CCn1nc(-c2ccc(C)cc2)c2ccccc2c1=O`, 9.59%.
For `Cc1cc(C)cc(C(=O)NC2C(=O)N3C(C(=O)O)=C(CSc4nnc(C)s4)CSC23)c1` (stereo not shown), the “hERG current change (%, negative = inhibition) at 1uM” value was determined as 24%.
As for `CCOc1ccc(C(=O)N2CCC3(CC2)NCCc2[nH]cnc23)cc1OCC`, the “hERG current change (%, negative = inhibition) at 1uM” value stood at 19.8%.
As for `Cc1nnc(-c2ccc(Oc3ccc(Cl)cc3)c([N+](=O)[O-])c2)o1`, the “hERG current change (%, negative = inhibition) at 1uM” value is 10.6%.
On to `CCN(CC)S(=O)(=O)c1ccc(NC(=O)CN(c2ccc(OC)cc2OC)S(C)(=O)=O)cc1`, for which the “hERG current change (%, negative = inhibition) at 1uM” value worked out at 10.9%.
To `COc1c(OC)c(O)c2c(=O)c(O)c(-c3ccccc3)oc2c1OC` belongs 10.1%; to `Cc1cc(OCC(=O)Nc2ccc3oc(=O)ccc3c2)ccc1Cl`, 9.11%; to `COc1ccc(CNC(=O)C2CCN(C(=O)c3ccc(F)cc3)CC2)cc1OC`, 7.1%.
For the compound `COc1ccc(Cc2nnc(NC(=O)c3ccc(Cl)c([N+](=O)[O-])c3)s2)cc1`, the “hERG current change (%, negative = inhibition) at 1uM” value worked out at 14.7%.
Regarding `Cn1c(SCC(=O)N2CCCC2)nnc1-c1cccs1`, the “hERG current change (%, negative = inhibition) at 1uM” value is reported as 15.2%.
As for `CCOC(=O)N1CCN(C(=O)CNC(=O)c2nn(-c3ccc(OC)cc3OC)c(=O)c3ccccc23)CC1`, the “hERG current change (%, negative = inhibition) at 1uM” value came to 9.05%.
In the case of `O=C(Nc1scc(-c2ccccc2)c1C(=O)O)c1ccc(F)cc1`, the “hERG current change (%, negative = inhibition) at 1uM” value was determined as 22.1%.
As for `Cc1nc(CC(=O)NNS(=O)(=O)c2ccc(F)c(Cl)c2)cs1`, the “hERG current change (%, negative = inhibition) at 1uM” value is recorded as 15.9%.
As for `COc1ccc(Oc2c(C)oc3c(CN(C)C)c(O)ccc3c2=O)cc1`, the “hERG current change (%, negative = inhibition) at 1uM” value is 3.37%.
With `CCN1CCN(CCNC(=O)CCCn2nc(C)c3c(C)n(-c4ccc(C)cc4)nc3c2=O)CC1`, the “hERG current change (%, negative = inhibition) at 1uM” value is -0.261%.
For `O=C(CNC(=O)c1cc2c(s1)CCC2)Nc1ccccc1Br`, the “hERG current change (%, negative = inhibition) at 1uM” value was 13.2%.
`COc1ccccc1NC(=O)N1CCc2c([nH]c3ccccc23)C1C(F)(F)F` (stereo not shown): the “hERG current change (%, negative = inhibition) at 1uM” value stood at 12.7%.
To `CCc1nnc(NC(=O)CCC(=O)NC2CCCC2)s1` belongs 5.44%; to `COc1ccccc1N1CCN(C(=S)Nc2ccc(S(=O)(=O)N3CCOCC3)cc2)CC1`, 12.3%; to `O=C(NCc1ccc2c(c1)OCO2)C(=O)Nc1cc2c3c(c1)CC(=O)N3CCC2`, 6.08%.
With `Cc1cccc(C)c1NC(=S)NC(=O)c1ccc(Br)o1`, the “hERG current change (%, negative = inhibition) at 1uM” value came out at 3.51%.
With `CCOc1ccc(-c2nc(C#N)c(NCc3ccc4c(c3)OCO4)o2)cc1`, the “hERG current change (%, negative = inhibition) at 1uM” value came to 11.6%.
Regarding `O=C(NNC(=S)Nc1ccccc1Cl)C1CC1`, the “hERG current change (%, negative = inhibition) at 1uM” value came to 17.2%.
To `O=C(NNc1ccc([N+](=O)[O-])cc1)C1CC1c1ccccc1` (stereo not shown) belongs 5.8%; to `C/C(=N\NC(=O)c1ccc(Cl)cc1)c1ccc(Br)s1`, 1.39%.
As to `Cc1ccc(C2(C)NC(=O)N(Cc3c(C)noc3C)C2=O)cc1` (stereo not shown), the “hERG current change (%, negative = inhibition) at 1uM” value is listed as 12%.
As to `CCOc1ccc(NC(=O)CN2CCN(C3c4ccccc4-c4ccccc43)CC2)cc1`, the “hERG current change (%, negative = inhibition) at 1uM” value was -25.5%.
Turning to `Cn1c(-c2ccc(C=O)s2)nc2ccccc21`, the “hERG current change (%, negative = inhibition) at 1uM” value worked out at 12.8%.
On to `O=C(C1CCN(S(=O)(=O)c2cccc3nsnc23)CC1)N1CCCc2ccccc21`, for which the “hERG current change (%, negative = inhibition) at 1uM” value worked out at 4.66%.
As to `O=C(CCCOc1ccccc1)Nc1nccs1`, the “hERG current change (%, negative = inhibition) at 1uM” value is reported as -14.6%.
As to `O=S1c2ccccc2Nc2ccccc21`, the “hERG current change (%, negative = inhibition) at 1uM” value turned out to be 9.01%.
Regarding `CCOC(=O)C(CO)(NC(C)=O)C(=O)OCC`, the “hERG current change (%, negative = inhibition) at 1uM” value came out at 14.1%.
To `COc1ccc(OC)c(-n2c(-c3ccccc3)n[nH]c2=S)c1` belongs 13%; to `CC(C)c1ccc(NC2CCCN(C(=O)c3ccco3)C2)cc1` (stereo not shown), 13.1%; to `COc1cccc(CN2CCN(Cc3ccc(O)c(OC)c3)CC2CCO)c1` (stereo not shown), 6.53%.
Turning to `O=C(Cn1cnc2cc([N+](=O)[O-])ccc2c1=O)Nc1cccc(S(=O)(=O)N2CCOCC2)c1`, the “hERG current change (%, negative = inhibition) at 1uM” value is -0.94%.
As for `CN1CCN(C(=O)C2CCN(c3ncc(C(F)(F)F)cc3Cl)CC2)CC1`, the “hERG current change (%, negative = inhibition) at 1uM” value came to 3.35%.
Then `O=[N+]([O-])c1ccc(Cl)c(S(=O)(=O)Nc2ccc(-c3ccc(N4CCCC4)nn3)cc2)c1`, with 0.863%.
With `COC(=O)c1cn(CC(=O)NCc2cccs2)c2ccccc12`, the “hERG current change (%, negative = inhibition) at 1uM” value turned out to be 14.2%.
`CSc1ccc(NC(=O)c2cccnc2)cc1C#N`: the “hERG current change (%, negative = inhibition) at 1uM” value was 14.8%.
Turning to `O=C(Cc1ccccc1)NN1C(=O)C2C3C=CC(C3)C2C1=O` (stereo not shown), the “hERG current change (%, negative = inhibition) at 1uM” value turned out to be 12.9%.
As to `CC1CC(NS(=O)(=O)c2cc3c4c(c2)CCN4C(=O)CC3)CC(C)(C)C1` (stereo not shown), the “hERG current change (%, negative = inhibition) at 1uM” value is given as -3.42%.
As to `COc1ccc(CN(CC2CCCO2)S(=O)(=O)c2ccc(-n3cnnn3)c(OC)c2)cc1` (stereo not shown), the “hERG current change (%, negative = inhibition) at 1uM” value is given as -3.64%.
`CN(CCC1CCOCC1)C(=O)CC1C(=O)NCCN1CC1CCCCC1` (stereo not shown): the “hERG current change (%, negative = inhibition) at 1uM” value is listed as 8.21%.
Turning to `CCCC(C)C(=O)Nc1ccc(S(=O)(=O)N2CCCC2)cc1` (stereo not shown), the “hERG current change (%, negative = inhibition) at 1uM” value is 12.2%.
In the case of `CCOC(=O)C1=C(c2ccccc2)NC(=O)NC1c1ccc(OC)cc1` (stereo not shown), the “hERG current change (%, negative = inhibition) at 1uM” value is reported as 4.55%.
To `O=C(CSc1ccc(Cl)cc1)NC1=NN(c2ccccc2)C(=O)C1` belongs 16.2%; to `CN(C)c1c(F)cc(-c2nn[nH]n2)cc1F`, 15.6%; to `CCOc1ccc2nc(N3C(=O)C(O)=C(C(=O)c4ccco4)C3c3ccco3)sc2c1` (stereo not shown), 15.4%.
As to `COc1ccc2nc(NC(=O)c3ccc4ncsc4c3)sc2c1`, the “hERG current change (%, negative = inhibition) at 1uM” value is 11.5%.
Then `Cc1ccc(Cl)cc1N1CCN(C(=O)c2ccc3nc[nH]c3c2)CC1`, with -2.09%.
In the case of `Cl.Clc1cc(I)cc(Cl)c1NC1=NCCN1`, the “hERG current change (%, negative = inhibition) at 1uM” value is on record as 9.07%.
Take `CCN(CC)CCNC(=O)c1cc2c(-c3ccc(Cl)cc3)nn(C)c2s1`: the “hERG current change (%, negative = inhibition) at 1uM” value was -13.3%.
For `O=C(Cc1ccc(-n2c(=O)c3sccc3n(CC(=O)Nc3ccccc3)c2=O)cc1)NCc1ccco1`, the “hERG current change (%, negative = inhibition) at 1uM” value is 16.2%.
In the case of `CC(=O)Nc1ccc(/C(C)=N/Nc2nc(N3CCOCC3)nc(N3CCOCC3)n2)cc1`, the “hERG current change (%, negative = inhibition) at 1uM” value is 19%.
For the compound `Nc1c(Cl)ncnc1N1CCCC1`, the “hERG current change (%, negative = inhibition) at 1uM” value was determined as 18.1%.
For `O/N=C1/C2C3CC4C5C3C1C5C1(OCCO1)C42` (stereo not shown), the “hERG current change (%, negative = inhibition) at 1uM” value is listed as 12.5%.
Consider `Cc1ccc(NS(=O)(=O)c2ccc(C(=O)NCC3CCCO3)cc2)cc1` (stereo not shown), for which the “hERG current change (%, negative = inhibition) at 1uM” value was 1.84%.
On to `CC(C)N(C(=O)Cn1c(SCC(=O)Nc2nccs2)nc2ccccc21)C(C)C`, for which the “hERG current change (%, negative = inhibition) at 1uM” value stood at 13.8%.
On to `Cc1sc(NC(=O)CCS(=O)(=O)c2ccccc2)c(C#N)c1C`, for which the “hERG current change (%, negative = inhibition) at 1uM” value was determined as 13.8%.
Regarding `O=C1CCN(C(=O)c2ccccc2)C2CCCCC12` (stereo not shown), the “hERG current change (%, negative = inhibition) at 1uM” value turned out to be 6.67%.
On to `COc1cccc(CN2CCC(C(=O)N3CCN(Cc4ccc5c(c4)OCO5)CC3)CC2)c1`, for which the “hERG current change (%, negative = inhibition) at 1uM” value turned out to be 4.46%.
On to `C[C@H](NC(=O)N1CCn2c1nc1ccccc12)C(=O)NCc1ccc2c(c1)OCO2`, for which the “hERG current change (%, negative = inhibition) at 1uM” value is on record as -3.38%.
Then `Cc1cc(NC(=O)CSc2nc3ccccc3cc2C#N)no1`, with 7.38%.
Then `CC(=O)NCCc1ccc(C(=O)CSc2nnc(C3CC3)n2C2CC2)cc1`, with 25.9%; and `COC(=O)c1ccc(Cn2nnc3c(=O)[nH]c(C4CCCN(S(=O)(=O)c5cccc(Cl)c5)C4)nc32)cc1` (stereo not shown), with 8.83%.
As to `Cc1c(Br)c([N+](=O)[O-])nn1CC(=O)N1CCN(C23CC4CC(CC(C4)C2)C3)CC1`, the “hERG current change (%, negative = inhibition) at 1uM” value was determined as 2.63%.
Then `CC(=O)NC(=S)Nc1cccc2ccc(C)nc12`, with 9.62%; and `Cc1cc(NC(=O)CSc2nnc3c4c(C)c(C)sc4ncn23)no1`, with 1.57%.
Regarding `Cc1ccc(CN2C(=O)c3ccccc3NC2c2cc(Br)ccc2O)cc1` (stereo not shown), the “hERG current change (%, negative = inhibition) at 1uM” value was found to be 8.02%.
Consider `CN(CC(=O)Nc1ccccc1C(F)(F)F)C(=O)C1CCN(C(=O)c2ccc(Cl)cc2)CC1`, for which the “hERG current change (%, negative = inhibition) at 1uM” value is listed as 2.31%.
With `CNS(=O)(=O)c1cc(C(=O)NCc2ccco2)ccc1Cl`, the “hERG current change (%, negative = inhibition) at 1uM” value is given as 6.43%.
Turning to `CC(=O)Nc1ccc([N+](=O)[O-])c(CS(=O)(=O)c2ccc(C)cc2)c1[N+](=O)[O-]`, the “hERG current change (%, negative = inhibition) at 1uM” value was -1.64%.
Take `Cc1ccc(NC(=O)CSc2ccccc2NC(=O)c2cccc(Cl)c2)cc1Cl`: the “hERG current change (%, negative = inhibition) at 1uM” value was found to be 0.293%.
